Laboratory results published in the supplement of paper PMC4967469.

Tests used:
Test in all cases: Viability of human cancer cell lines after 72 h of drug (GDSC screen)
EX-527 = compound: NC(=O)C1CCCc2c1[nH]c1ccc(Cl)cc21 [EX-527]; settings: top dose 20 µM
Description: (§1)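 Human cancer cell lines in 384-well plates, medium with 10% serum, drug for 72 h over a 256-fold dose range (nine 2-fold or five 4-fold steps up to the top dose). Adherent lines were fixed and stained with the nucleic acid dye Syto60, suspension lines read with resazurin; signal relative to control wells, capped at 0 and 100%. One two-parameter sigmoid per drug and line, fitted in a mixed model over all curves with the slope shared within a line.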

YM201636 = compound: Nc1ccc(C(=O)Nc2cccc(-c3nc(N4CCOCC4)c4oc5ncccc5c4n3)c2)cn1 [YM201636]; settings: top dose 5.12 µM; top dose inferred
Description: as §1

AZD6244 = compound: Cn1cnc2c(F)c(Nc3ccc(Br)cc3Cl)c(C(=O)NOCCO)cc21 [AZD6244]; settings: top dose 4 µM; screen: GDSC drug entry 1498; top dose inferred
Description: as §1

AS601245 = compound: N#CC(c1ccnc(NCCc2cccnc2)n1)c1nc2ccccc2s1 [AS601245]; settings: top dose 8 µM; top dose inferred
Description: as §1

| Cell Line | AUC (EX-527) | IC50 (EX-527) | AUC (YM201636) | IC50 (YM201636) | AUC (AZD6244) | IC50 (AZD6244) | AUC (AS601245) | IC50 (AS601245) |
| --- | --- | --- | --- | --- | --- | --- | --- | --- |
| BxPC-3 (pancreas, adherent) | 0.984 | > 20 µM | 0.899 | > 5.12 µM | 0.785 | 1.93 µM | 0.703 | 2.02 µM |
| C3A (liver, adherent) | 0.987 | > 20 µM | 0.988 | > 5.12 µM | 0.792 | 1.9 µM | 0.732 | 2.36 µM |
| C32 (melanoma, adherent) | 0.978 | > 20 µM | 0.987 | > 5.12 µM | 0.308 | 0.0693 µM | 0.877 | > 8 µM |
| C-4-I (cervix, adherent) | 0.97 | > 20 µM | 0.967 | > 5.12 µM | 0.909 | > 4 µM | 0.85 | 6.84 µM |
| C-33-A (cervix, adherent) | 0.971 | > 20 µM | 0.756 | 1.76 µM | 0.747 | 1.29 µM | 0.707 | 1.92 µM |
| CAKI-1 (kidney, adherent) | 0.965 | > 20 µM | 0.9 | > 5.12 µM | 0.682 | 1.04 µM | 0.806 | 6.85 µM |
| CAL-12T (non-small cell lung carcinoma, adherent) | 0.96 | > 20 µM | 0.867 | > 5.12 µM | 0.834 | 3.04 µM | 0.649 | 1.36 µM |
| CAL-27 (head and neck, adherent) | 0.98 | > 20 µM | 0.955 | > 5.12 µM | 0.672 | 0.762 µM | 0.813 | 4.44 µM |
| CAL-29 (bladder, adherent) | 0.978 | > 20 µM | 0.885 | > 5.12 µM | 0.733 | 1.23 µM | 0.946 | > 8 µM |
| CAL-33 (head and neck, adherent) | 0.978 | > 20 µM | 0.944 | > 5.12 µM | 0.607 | 0.492 µM | 0.91 | > 8 µM |
| CAL-39 (cervix, adherent) | 0.974 | > 20 µM | 0.979 | > 5.12 µM | 0.539 | 0.321 µM | 0.849 | 6.39 µM |
| CAL-51 (breast, adherent) | 0.985 | > 20 µM | 0.991 | > 5.12 µM | 0.947 | > 4 µM | 0.78 | 2.83 µM |
| CAL-54 (kidney, adherent) | 0.985 | > 20 µM | 0.867 | > 5.12 µM | 0.86 | > 4 µM | 0.912 | > 8 µM |
| CAL-62 (thyroid, adherent) | 0.97 | > 20 µM | 0.955 | > 5.12 µM | 0.518 | 0.279 µM | 0.845 | 5.39 µM |
| CAL-72 (osteosarcoma, adherent) | 0.983 | > 20 µM | 0.983 | > 5.12 µM | 0.915 | > 4 µM | 0.751 | 3.05 µM |
| CAL-85-1 (breast, adherent) | 0.928 | > 20 µM | 0.895 | > 5.12 µM | 0.786 | 2.27 µM | 0.656 | 1.54 µM |

| Cell Line | AUC (EX-527) | IC50 (EX-527) | AUC (YM201636) | IC50 (YM201636) | AUC (AZD6244) | IC50 (AZD6244) | AUC (AS601245) | IC50 (AS601245) |
| --- | --- | --- | --- | --- | --- | --- | --- | --- |
| CAL-120 (breast, adherent) | 0.981 | > 20 µM | 0.897 | > 5.12 µM | 0.923 | > 4 µM | 0.93 | > 8 µM |
| CAMA-1 (breast, adherent) | 0.961 | > 20 µM | 0.925 | > 5.12 µM | 0.975 | > 4 µM | 0.928 | > 8 µM |
| CCF-STTG1 (glioma, adherent) | 0.988 | > 20 µM | 0.988 | > 5.12 µM | 0.885 | > 4 µM | 0.792 | 3.67 µM |
| CCK-81 (large intestine, adherent) | 0.99 | > 20 µM | 0.871 | 4.33 µM | 0.989 | > 4 µM | 0.886 | 7.91 µM |
| CFPAC-1 (pancreas, adherent) | 0.984 | > 20 µM | 0.935 | > 5.12 µM | 0.801 | 2.3 µM | 0.845 | 7.04 µM |
| CHL-1 (melanoma, adherent) | 0.894 | > 20 µM | 0.768 | 1.82 µM | 0.807 | 1.91 µM | 0.862 | 6.22 µM |
| CHSA0011 (chondrosarcoma, adherent) | 0.98 | > 20 µM | 0.957 | > 5.12 µM | 0.764 | 2.04 µM | 0.927 | > 8 µM |
| CHSA0108 (chondrosarcoma, adherent) | 0.983 | > 20 µM | 0.971 | > 5.12 µM | 0.852 | 3.87 µM | 0.983 | > 8 µM |
| CHSA8926 (chondrosarcoma, adherent) | 0.98 | > 20 µM | 0.933 | > 5.12 µM | 0.909 | > 4 µM | 0.979 | > 8 µM |
| COLO-205 (large intestine, suspension) | 0.984 | > 20 µM | 0.954 | > 5.12 µM | 0.562 | 0.368 µM | 0.836 | 5.21 µM |
| COLO-678 (large intestine, semi-adherent) | 0.985 | > 20 µM | 0.967 | > 5.12 µM | 0.752 | 1.68 µM | 0.902 | > 8 µM |
| COLO-679 (melanoma, adherent) | 0.983 | > 20 µM | 0.95 | > 5.12 µM | 0.249 | 0.0428 µM | 0.849 | 7.13 µM |
| COLO-680N (oesophagus, adherent) | 0.986 | > 20 µM | 0.983 | > 5.12 µM | 0.901 | > 4 µM | 0.891 | > 8 µM |
| COLO-783 (melanoma, adherent) | 0.975 | > 20 µM | 0.991 | > 5.12 µM | 0.693 | 0.847 µM | 0.991 | > 8 µM |
| COLO-792 (melanoma, adherent) | 0.988 | > 20 µM | 0.984 | > 5.12 µM | 0.592 | 0.445 µM | 0.988 | > 8 µM |
| COR-L23 (large cell lung carcinoma, adherent) | 0.977 | > 20 µM | 0.909 | > 5.12 µM | 0.915 | > 4 µM | 0.839 | 5.27 µM |

IC50 is the fitted dose that halves viability relative to control wells, and lower means more sensitive; fits outside the tested doses are given as limits. AUC, from the same fit, is the share of area under the viability curve across the 256-fold dose range; it is 1 without any effect and falls as sensitivity rises. For some of these results: A top dose marked as inferred was calculated from the reported fits. For some of these results: Drugs with an entry number were screened twice under separate entries, and the two screens often disagree.
